Results published in PubChem BioAssay AID296 (DTP/NCI, 2004).
Inconclusive results are not listed. Certain results were filed several times, with different values. The other results are left out here. The source may hold further records. Results that share an entry are repeats across runs, samples, wells, individuals or studies.

Tested on: MX-1 breast xenograft, nude mice, tumor weight T/C
Test: NCI In Vivo Anticancer Drug Screen. Data for tumor model Human Mammary Carcinoma MX-1 Xenograft (intrarenal inoculation) in NU/NU Swiss (nude) mice
Details: endpoint: mean tumor weight change, higher = larger tumour
Method: The antitumor activity of compounds was measured in mice bearing transplantable tumors. Survival or tumor size were measured and the results are expressed as the measurement made in the treated group (T) divided by the measurement made in the vehicle treated control group (C). The tumor model used in this assay is Human Mammary Carcinoma MX-1 Xenograft (intrarenal inoculation) in NU/NU Swiss (nude) mice

[1] = dose: 100.0 mg/kg/injection, schedule: Q01DX010 (sc), vehicle: saline
[2] = dose: 200.0 mg/kg/injection, schedule: Q01DX010 (sc), vehicle: saline
[3] = dose: 100.0 mg/kg/injection, schedule: Q04DX003 (sc), vehicle: Klucel (hydroxypropylcellulose) (HPC)
[4] = dose: 400.0 mg/kg/injection, schedule: Q04DX003 (sc), vehicle: Klucel (hydroxypropylcellulose) (HPC)
[5] = dose: 300.0 mg/kg/injection, schedule: Q04DX003 (sc), vehicle: suspension in saline
[6] = dose: 600.0 mg/kg/injection, schedule: Q04DX003 (sc), vehicle: suspension in saline
[7] = dose: 1200.0 mg/kg/injection, schedule: Q04DX003 (sc), vehicle: suspension in saline

## Cc1ccc(S(=O)(=O)N/N=C/C(=O)O)cc1
dose: 100.0 mg/kg/injection, schedule: Q01DX010 (sc), vehicle: Klucel (hydroxypropylcellulose) (HPC)
  T/C: 87 % of control and 117 % of control
dose: 200.0 mg/kg/injection, schedule: Q01DX010 (sc), vehicle: Klucel (hydroxypropylcellulose) (HPC)
  T/C: 50 % of control and 91 % of control

## ClCCCN1CCN(CCCl)CC1
dose: 3.75 mg/kg/injection, schedule: Q04DX003 (sc), vehicle: saline
  T/C: 50 % of control, 58 % of control, 83 % of control
dose: 15.0 mg/kg/injection, schedule: Q04DX003 (sc), vehicle: saline
  T/C: -61 % of control and 8 % of control

## CC(C)[NH-].CC(C)[NH-].[Cl][Pt+2][Cl]
dose: 37.5 mg/kg/injection, schedule: Q04DX003 (sc), vehicle: dextrose
  T/C: 15 % of control, 25 % of control, 101 % of control
dose: 75.0 mg/kg/injection, schedule: Q04DX003 (sc), vehicle: dextrose
  T/C: 2 % of control, 8 % of control, 66 % of control
dose: 150.0 mg/kg/injection, schedule: Q04DX003 (sc), vehicle: dextrose
  T/C: -61 % of control, 3 % of control, 43 % of control

## CC(C)NC(=O)N(CCCCBr)N=O
dose: 150.0 mg/kg/injection, schedule: Q04DX003 (sc), vehicle: Klucel (hydroxypropylcellulose) (HPC)
  T/C: 20 % of control and 61 % of control
dose: 600.0 mg/kg/injection, schedule: Q04DX003 (sc), vehicle: Klucel (hydroxypropylcellulose) (HPC)
  T/C: -14 % of control and 19 % of control

## C(CC1CO1)C1CO1 (stereo unspecified)
dose: 25.0 mg/kg/injection, schedule: Q01DX010 (sc), vehicle: saline
  T/C: 69 % of control and 95 % of control
dose: 50.0 mg/kg/injection, schedule: Q01DX010 (sc), vehicle: saline
  T/C: 24 % of control and 56 % of control
dose: 75.0 mg/kg/injection, schedule: Q04DX003 (sc), vehicle: suspension in saline
  T/C: 32 % of control and 58 % of control

## ClCC[N+]12CC[N+](CCCl)(CC1)C2
dose: 200.0 mg/kg/injection, schedule: Q04DX003 (sc), vehicle: water
  T/C: 50 % of control and 87 % of control

## Nc1ncnc2c1ncn2C1OC(COP(=O)(O)O)C(O)C1O (stereo unspecified)
[1]
  T/C: 58 % of control and 123 % of control
[2]
  T/C: 30 % of control, 67 % of control, 110 % of control

## O=c1[nH]c(=O)c2nc(-c3cccnc3)cnc2[nH]1
[3]
  T/C: 8 % of control and 81 % of control
[4]
  T/C: 21 % of control and 112 % of control
dose: 800.0 mg/kg/injection, schedule: Q04DX003 (sc), vehicle: Klucel (hydroxypropylcellulose) (HPC)
  T/C: 65 % of control and 106 % of control

## C/C=C1\C[C@@H]2C(OC)Nc3cc(O)c(OC)cc3C(=O)N2C1 (stereo partly specified)
dose: 2.0 mg/kg/injection, schedule: Q04DX003 (sc), vehicle: saline
  T/C: 30 % of control and 65 % of control
dose: 8.0 mg/kg/injection, schedule: Q04DX003 (sc), vehicle: saline
  T/C: -60 % of control and 18 % of control

## CCC1(O)CC2CN(CCc3c([nH]c4ccccc34)C(C(=O)OC)(c3cc4c(cc3OC)N(C)C3C(O)(C(N)=O)C(O)C5(CC)C=CCN6CCC43C65)C2)C1 (stereo unspecified) (tested in a mixture with another compound)
dose: 3.0 mg/kg/injection, schedule: Q04DX003 (sc), vehicle: water
  T/C: -100 % of control, -6 % of control, -1 % of control

## COC1=C(N)C(=O)c2nc(-c3nc(C(=O)O)c(C)c(-c4ccc(OC)c(OC)c4O)c3N)ccc2C1=O
dose: 0.25 mg/kg/injection, schedule: Q01DX010 (sc), vehicle: saline
  T/C: -67 % of control and -24 % of control

## CCOC(=O)c1ccc(NC(=O)Nc2nncs2)cc1
dose: 100.0 mg/kg/injection, schedule: Q01DX010 (sc), vehicle: distilled water + Tween-80
  T/C: 63 % of control and 101 % of control
dose: 200.0 mg/kg/injection, schedule: Q01DX010 (sc), vehicle: distilled water + Tween-80
  T/C: 42 % of control and 71 % of control
dose: 400.0 mg/kg/injection, schedule: Q01DX010 (sc), vehicle: distilled water + Tween-80
  T/C: 20 % of control and 58 % of control

## O=C1N[C@@H]([C@H]2CC[C@H](Cl)CN2)C(=O)N[C@H]1[C@H]1CC[C@H](Cl)CN1
dose: 1.25 mg/kg/injection, schedule: Q01DX010 (sc), vehicle: water
  T/C: 76 % of control and 123 % of control

## COC1C(O)CC(OC2CC(OC3CC(O[C@@H]4C(=O)c5c(cc6cc(OC7CC(OC8CC(O)C(O)C(C)O8)C(O)C(C)O7)c(C)c(O)c6c5O)C[C@H]4[C@H](OC)C(=O)[C@@H](O)[C@@H](C)O)OC(C)C3O)OC(C)C2O)OC1C (stereo partly specified)
dose: 0.37 mg/kg/injection, schedule: Q01DX010 (sc), vehicle: saline
  T/C: -47 % of control and 24 % of control
dose: 0.75 mg/kg/injection, schedule: Q01DX010 (sc), vehicle: saline
  T/C: -100 % of control, 11 % of control, 18 % of control
dose: 1.5 mg/kg/injection, schedule: Q01DX010 (sc), vehicle: saline
  T/C: -100 % of control and -63 % of control

## CNC(=O)OCc1c(COC(=O)NC)c(C)n(-c2ccc(OC)cc2)c1C
dose: 200.0 mg/kg/injection, schedule: Q04DX003 (sc), vehicle: Klucel (hydroxypropylcellulose) (HPC)
  T/C: -32 % of control and 37 % of control
[4]
  T/C: -99 % of control and 1 % of control

## CC[C@](C)(O)C(=O)O[C@H]1C(=O)O[C@@H]2C[C@H]3C(C)=CC(=O)[C@@H](O)[C@]3(C)[C@H]3[C@@]4(O)OC[C@]32[C@@H]1[C@@H](C)[C@H]4O
dose: 0.25 mg/kg/injection, schedule: Q01DX010 (sc), vehicle: Klucel (hydroxypropylcellulose) (HPC)
  T/C: 120 % of control, 122 % of control, 166 % of control
dose: 0.5 mg/kg/injection, schedule: Q01DX010 (sc), vehicle: Klucel (hydroxypropylcellulose) (HPC)
  T/C: 52 % of control, 82 % of control, 120 % of control
dose: 1.0 mg/kg/injection, schedule: Q01DX010 (sc), vehicle: Klucel (hydroxypropylcellulose) (HPC)
  T/C: 13 % of control and 74 % of control

## c1cc2n(n1)CCN2
[1]
  T/C: 18 % of control and 75 % of control
[2]
  T/C: 52 % of control and 86 % of control

## O=C1C(NCCO)=C(N2CC2)C(=O)C(NCCO)=C1N1CC1
dose: 1.0 mg/kg/injection, schedule: Q04DX003 (sc), vehicle: saline
  T/C: 17 % of control and 93 % of control
dose: 4.0 mg/kg/injection, schedule: Q04DX003 (sc), vehicle: saline
  T/C: -69 % of control and 1 % of control

## OC(C1CO1)C(O)C1CO1 (stereo unspecified)
dose: 0.5 mg/kg/injection, schedule: Q01DX010 (sc), vehicle: saline
  T/C: 2 % of control and 52 % of control
dose: 2.0 mg/kg/injection, schedule: Q01DX010 (sc), vehicle: saline
  T/C: -23 % of control and 3 % of control

## CC(=O)OCC1OC(n2ccc(N)nc2=O)C(OC(C)=O)C1OC(C)=O (stereo unspecified)
[5]
  T/C: 38 % of control and 73 % of control
[6]
  T/C: 36 % of control and 65 % of control
[7]
  T/C: 10 % of control and 85 % of control

## C=C1CC2(OC1=O)C(=O)N(C)c1ccc(I)cc12 (stereo unspecified)
[5]
  T/C: 20 % of control, 79 % of control, 118 % of control
[6]
  T/C: 20 % of control, 89 % of control, 105 % of control
[7]
  T/C: 42 % of control, 69 % of control, 113 % of control
dose: 2400.0 mg/kg/injection, schedule: Q04DX003 (sc), vehicle: suspension in saline
  T/C: 70 % of control and 121 % of control

## O=NN(CCCl)C(=O)NC1CCCCC1
dose: 8.0 mg/kg/injection, schedule: Q01DX010 (sc), vehicle: saline with Tween-80
  T/C: 50 % of control and 251 % of control
dose: 16.0 mg/kg/injection, schedule: Q04DX003 (sc), vehicle: Klucel (hydroxypropylcellulose) (HPC)
  T/C: 19 % of control and 63 % of control
dose: 32.0 mg/kg/injection, schedule: Q01DX010 (sc), vehicle: saline with Tween-80
  T/C: -8 % of control and 39 % of control
dose: 32.0 mg/kg/injection, schedule: Q04DX003 (sc), vehicle: Klucel (hydroxypropylcellulose) (HPC)
  T/C: -34 % of control and 30 % of control
dose: 50.0 mg/kg/injection, schedule: Q04DX003 (sc), vehicle: Klucel (hydroxypropylcellulose) (HPC)
  T/C: 26 % of control and 224 % of control
[3]
  T/C: -85 % of control and 124 % of control

## COc1cccc2c1C(=O)c1c(O)c3c(c(O)c1C2=O)C[C@@](O)(/C(C)=N/NC(=O)c1ccc(Cl)cc1)C[C@@H]3OC1CC(N)C(O)C(C)O1 (stereo partly specified)
dose: 2.0 mg/kg/injection, schedule: Q01DX010 (sc), vehicle: water
  T/C: 70 % of control and 101 % of control
dose: 8.0 mg/kg/injection, schedule: Q01DX010 (sc), vehicle: water
  T/C: 63 % of control and 101 % of control

## O=C(CCBr)N1CCN(C(=O)CCBr)CC1
dose: 9.0 mg/kg/injection, schedule: Q01DX010 (sc), vehicle: Klucel (hydroxypropylcellulose) (HPC)
  T/C: 56 % of control and 95 % of control
